# Measured values reported in PubChem BioAssay AID1466 (National Center for Advancing Translational Sciences (NCATS), 2008).
# In all, about 200,000 compounds went through this assay and about 10 (0.005%) were called active. This list was built around the results that the source calls inconclusive (neither active nor inactive); the mix of calls is not that of the screen. Calls follow the shape of the dose curve; as a rule, active = well fitted inhibition curve with a large enough effect; inconclusive = small, poorly fitted or top-dose-only effect, or effect the other way, or another doubt; inactive = no such curve, though single readings can be large or run the other way. Potencies of inconclusive entries are left out as doubtful fits.
# Molecular target: Lysosomal alpha-glucosidase (Homo sapiens) (UniProt P10253)
# Experiment: qHTS Assay for Inhibitors of Human alpha-Glucosidase as a Potential Chaperone Treatment of Pompe Disease;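 as to activity change, negative = inhibition: plate controls were uninhibited enzyme wells for no effect and no-enzyme background for full effect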
# Conditions: purified human GAA, 4-MU-alpha-glucoside fluorescence; activity change, negative = inhibition: at 76.9 µM (top of the series) unless noted
# In short: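 Fluorescence at Ex 365/Em 440 nm from 4-methylumbelliferone reported enzyme activity after 20 min at room temperature. Reactions used 4 nM enzyme and 400 uM substrate at pH 5.0; curves fitted with the Hill equation.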
# Potency is read from the fitted curve at half-maximal effect; tags tell the direction and shape of the fitted curve.
Structure (SMILES),"activity change, negative = inhibition",Potency
O=c1[nH]ncc(N2CCCC2)c1Cl,inconclusive: -15.6% [inhibitor],–
O=C(Nc1ncc2c(n1)-c1ccccc1OC2)c1ccc(Cl)cc1,inconclusive: 17.5% [activator],–
CC(C)Cn1c(N)c(C(=O)COC(=O)c2cccc(F)c2)c(=O)n(C)c1=O,–,"inconclusive [inhibitor, full curve]"
O=C(CCN1C(=O)C2C3C=CC(C3)C2C1=O)N1CCN(c2ccccc2F)CC1 (stereo unspecified),–,"inconclusive [inhibitor, single point]"
O=c1[nH]c2ccc(S(=O)(=O)N3CCN(Cc4ccccc4)CC3)cc2[nH]c1=O,–,"inconclusive [inhibitor, single point]"
CCOc1ccc(N2CC(C(=O)OC)CC2=O)cc1 (stereo unspecified),–,"inconclusive [inhibitor, single point]"
COc1ccc(C(=O)c2ccc(Cl)c([N+](=O)[O-])c2)cc1,inconclusive: -16.9% [inhibitor],–
O=S(=O)(c1ccc2ccccc2c1)n1cnc2ccccc21,–,"inconclusive [inhibitor, partial curve, poor fit]"
FCCCOc1ccc(-c2nccc(-c3ccc(F)cc3)n2)cc1,–,"inconclusive [inhibitor, partial curve]"
COC(=O)Cc1c(C)c2ccc(OC(=O)c3ccccc3)cc2oc1=O,–,"inconclusive [activator, partial curve]"
COC(=O)C1C(=O)/C(=C/N(C)C)C(=O)CC1(C)C (stereo unspecified),–,"inconclusive [inhibitor, partial curve]"
CC(C(=O)NC1=NCCS1)(C(F)(F)F)C(F)(F)F,–,"inconclusive [inhibitor, single point]"
NC(=O)C1CC(O)CN1c1nc(CN2CCOCC2)nc2scc(-c3ccccc3)c12 (stereo unspecified),–,"inconclusive [inhibitor, single point]"
CC(C)c1ccc(S(=O)(=O)N2CCN(CC(=O)Nc3ccc4c(c3)OCO4)CC2)cc1,–,"inconclusive [inhibitor, single point]"
CC(C)CC1C(C#N)=C(N)Oc2n[nH]c(-c3ccccc3)c21 (stereo unspecified),–,"inconclusive [inhibitor, partial curve]"
Cc1cc(C)c(S(=O)(=O)Nc2ccc(O)cc2)c(C)c1,inactive: -8.19%,–
Cc1ccccc1-c1ncc(CN2CCN(C3CCCCC3)C(CCO)C2)cn1 (stereo unspecified),–,"inconclusive [activator, full curve, poor fit]"
CC(=O)OCCCn1c(C)[n+](C)c2cc(Cl)c(Cl)cc21,inconclusive: 17.8% [activator],–
COc1cccc(Nc2nc(-c3cccs3)nc3ccccc23)c1,inactive: -2.65%,–
Cc1ccc(OCC(=O)N(Cc2ccccc2)c2ccccn2)cc1,–,"inconclusive [inhibitor, partial curve, poor fit]"
O=C(CNC(=O)c1ccc2c(c1)OCO2)N/N=C(Br)/C=C/c1ccccc1,–,"inconclusive [activator, full curve, poor fit]"
CCc1ccc(C(C)NC(=O)/C(C#N)=C\c2cn[nH]c2-c2ccccc2)cc1 (stereo unspecified),–,"inconclusive [inhibitor, partial curve]"

Structure (SMILES),"activity change, negative = inhibition",Potency
Cc1c(Cc2ccccc2)c(=O)oc2cc(OC(=O)c3ccccc3)ccc12,–,"inconclusive [activator, partial curve]"
CCOCCCNC(=O)CNC(=S)N(Cc1ccc(C)cc1)Cc1ccco1,–,"inconclusive [inhibitor, single point]"
COc1ccc(OC)c(CCNC(=O)c2ccc(CS(=O)(=O)c3ccc(Br)cc3)o2)c1,–,"inconclusive [inhibitor, single point]"
COc1ccc2cc(C#N)c(N3CCN(C(=O)c4ccccc4C)CC3)nc2c1,–,"inconclusive [activator, partial curve]"
CCCn1c(-c2ccc[nH]c2=O)nc2cc(C)c(C)cc21,–,"inconclusive [activator, single point]"
Cc1ccc(S(=O)(=O)N2CCN(C(=O)CCC(=O)N3CCc4ccccc43)CC2)cc1,inconclusive: -19.8% [inhibitor],–
COc1ccc2cc3cc(C(=O)NCc4cccs4)oc3nc2c1,–,"inconclusive [activator, partial curve, poor fit]"
Cc1[nH]c2ccccc2c1/C=N/n1cnnc1,–,"inconclusive [inhibitor, partial curve]"
CC(C)Oc1cc(NC(=O)CS(=O)CC(=O)N(C)C)c(Cl)cc1Cl (stereo unspecified),–,"inconclusive [inhibitor, single point]"
O=S(=O)(c1ccccc1)c1nc(-c2ccccc2F)oc1NCc1cccnc1,–,"inconclusive [inhibitor, single point]"
Cc1cccc(NC(=O)c2c(C)nc3ccccn23)c1,–,"inconclusive [inhibitor, full curve, poor fit]"
COc1ccc(COc2cc(-c3cccc(OC)c3)nc3ccc(N)cc23)cc1,–,"inconclusive [activator, partial curve]"
NS(=O)(=O)c1ccc(NC(=O)c2cc(-c3cccs3)nc3ccccc23)cc1,–,"inconclusive [activator, single point]"
COCCCNC(=O)c1cc2c(=O)n3cc(C)ccc3nc2nc1NCC1CCCO1 (stereo unspecified),–,"inconclusive [activator, partial curve]"
O=C(CSc1nnc(-c2ccccn2)n1Cc1ccccc1)N1CCOCC1,inconclusive: 8.63% [activator],–
COc1cccc(N2CCN(C(=O)/C=C/c3ccco3)CC2)c1,–,"inconclusive [inhibitor, single point]"
Cc1nn(-c2ccccc2)c(C)c1S(=O)(=O)O,inconclusive: 12.1% [activator],–
Cc1ccc(S(=O)(=O)c2cc3ccccc3nc2N)cc1,–,"inconclusive [activator, full curve]"
O=C(Nn1cnnc1)C(c1ccccc1)c1ccccc1,inactive: 0.964%,–
CCn1c(/C=C\c2ccccc2C)nc2ccccc2c1=O,–,"inconclusive [inhibitor, single point]"
Cc1nn(C)c(Oc2ccc(Cl)cc2)c1C(=O)Nc1ccc(F)cc1F,inconclusive: 18.8% [activator],–
COc1cccc(OCCSc2nnc3sc4ccccc4n23)c1,–,"inconclusive [inhibitor, partial curve]"

Structure (SMILES),"activity change, negative = inhibition",Potency
COc1ccc(C(O)c2nc3ccccc3n2C)cc1OC (stereo unspecified),–,"inconclusive [inhibitor, single point]"
COc1cc(C2CC(=O)n3c(nc4ccccc43)S2)cc(OC)c1OC (stereo unspecified),inconclusive: 17.8% [activator],–
CN(C)c1ccc(/C=c2\sc3nc(-c4ccccc4)nn3c2=O)cc1,–,"inconclusive [inhibitor, single point]"
O=C(Cn1nnc(-c2ccccc2Cl)n1)N1CCN(S(=O)(=O)c2ccc(Cl)cc2)CC1,inconclusive: -15.2% [inhibitor],–
CC(C)=C1C2CCC1C(C(=O)Nc1sc(C)c(-c3ccc(C(C)C)cc3)c1C(N)=O)C2C(=O)O (stereo unspecified),inconclusive: -15% [inhibitor],–
Clc1ccc(-c2cn3cccnc3n2)cc1,–,"inconclusive [activator, partial curve]"
COC(=O)c1[nH]c2cc(OC)ccc2c1N,inactive: 3.75%,–
O=C(N1CCN(c2cccc(Cl)c2)CC1)C1(S(=O)(=O)c2ccc(Cl)cc2)CC1,–,"inconclusive [inhibitor, single point]"
COc1ccc(CNC(=O)c2ccc[nH]2)cc1Cl,–,"inconclusive [inhibitor, single point]"
COCCCNC(=O)COC(=O)c1ccc(-c2nc3ccccc3s2)s1,–,"inconclusive [activator, partial curve]"
CC(/C=N/Nc1nnc2c(n1)[nH]c1ccccc12)=C\c1ccco1,–,"inconclusive [inhibitor, single point]"
Cc1ccc(-n2nc3cc(C)c(N)cc3n2)cc1,–,"inconclusive [activator, partial curve]"
CC(=O)Nc1ccc(S(=O)(=O)C(C#N)c2nc3ccccc3nc2NCCO)cc1 (stereo unspecified),–,"inconclusive [activator, partial curve]"
O=c1[nH]cnc2sc3c(c12)CCN(Cc1ccccc1)C3,inconclusive: 23.8% [activator],–
Cc1nc2cc(-c3ccc(Cl)cc3)nn2c(NCCN(C)C)c1C,inconclusive: 17% [activator],–
CCOc1ccc(OCC)c(NC(=O)Nc2ccc3c(c2)N(C)C(=O)CS3)c1,–,"inconclusive [inhibitor, partial curve]"
C=CCNC(=S)NN=C1CCCCCCC1,inactive: 10.1%,–
Oc1ccc(Nc2nnc(-c3ccc(O)cc3)c3ccccc23)cc1,inactive: 0.641%,–
CC(=O)N1CCc2cc(C(=O)CN3CCN(c4cccc(Cl)c4)CC3)ccc21,–,"inconclusive [inhibitor, single point]"
CCOC(=O)C1=C(C)NC(C)=C(C(=O)OCC)C1c1cc(N)ccc1OC(F)F,–,"inconclusive [inhibitor, full curve]"
C=CCOC(=O)C1=C(C)NC(C)=C(C(=O)OCC=C)C1c1cn(-c2ccccc2)nc1-c1ccco1,–,"inconclusive [activator, partial curve]"
Cc1cc(C(=O)CSc2nnc(-c3cccnc3)n2-c2ccccc2F)c(C)n1CC1CCCO1 (stereo unspecified),–,"inconclusive [inhibitor, full curve, poor fit]"
